Several values for one entry are separate records, joined by “and”; a condition that tells them apart may be missing. Identical values can stand only once.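 48-hour exposure; five concentrations; linearly interpolated endpoints. Abbreviation: GI50, concentration required for 50% inhibition of growth. TGI: concentration producing complete growth inhibition.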 Peptide text beside a SMILES is read from it. * marks the point of attachment. Boc = CC(C)(C)OC(=O)*
System: NCI-H322M lung
Assay: NCI-60 cell line screen, 48 h

| Compound | TGI | GI50 |
| --- | --- | --- |
| CCCN(CCCCC(NC(C)=O)C(=O)NCc1ccccc1)C(=O)NC (centres undefined) | > 100 µM |  |
| c1ccc2c(c1)SC1Sc3ccccc3[S+]21 (centres undefined) | > 100 µM |  |
| C=C(CNCCO)[C@@H]1CC[C@]2(CO)CC[C@]3(C)[C@H](CC[C@@H]4[C@@]5(C)CCC(NCCc6ccc(O)cc6)C(C)(C)[C@@H]5CC[C@]43C)[C@@H]12 (some centres undefined) | 3.19 µM | 1.7 µM |
| c1ccc2c(NCCCCCCCCNc3c4ccccc4nc4ccccc34)c3ccccc3nc2c1 | 2.01 µM |  |
| NS(=O)(=O)c1ccc(/C=C/c2cccc(O)c2)cc1 | > 100 µM |  |
| COC(=O)C(Cc1ccccc1)NC(=O)CNC(=O)CSc1nnc(COc2ccc(Cl)cc2)n1-c1ccccc1 (centres undefined) | 32.6 µM |  |
| c1c[nH]c(Cc2ncc(Cc3cnc[nH]3)[nH]2)n1 | > 100 µM |  |
| CN(C)CCNC(=O)c1cc([N+](=O)[O-])cc2ccc(-c3ccccc3)nc12 | 20.5 µM |  |
| c1cc(-c2sc(-c3ccncc3)c(-c3ccncc3)c2-c2ccncc2)ccn1 | 39.6 µM |  |
| O=C(O)C(Cc1cccs1)C(=O)O | > 100 µM |  |
| CCCN(CCC)c1c([N+](=O)[O-])cc(S(N)(=O)=O)cc1[N+](=O)[O-] | 32.3 µM |  |
| O=C(CCCC(=O)N1CC(CCl)c2ccc([N+](=O)[O-])cc21)N1CC(CCl)c2ccc([N+](=O)[O-])cc21 (centres undefined) | > 100 µM |  |
| C=C1C(=O)O[C@H]2[C@H]1CC/C(COC(=O)c1ccc(C(=O)O)s1)=C\CC[C@@]1(C)O[C@@H]21 | 18.3 µM | 5.72 µM |
| O=C(Nc1ccc(Br)cc1)c1cc(Br)cc(Br)c1O | 8.75 µM | 3.2 µM |
| CCn1c2c(c3c(C(=O)OC)c(O)ccc31)C(=O)c1ccccc1C2=O | 76.5 µM |  |
| CN(C)CCNc1cccc2sc3ccc(O)cc3c(=O)c12 | 16.7 µM | 3.96 µM |
| CCOC(=O)c1c2ccc(/C=C/C(=O)OC)ccc-2c(C(=O)OCC)c1N | 8.53 µM |  |
| CC(C)n1c(=O)c2nn3c(=O)n(C(C)C)c(=O)c3nn2c1=O | > 100 µM |  |
| C=C[C@H]1CN2CC[C@H]1C[C@@H]2[C@@H](O)c1ccnc2ccccc12 | > 100 µM |  |
| c1cc2c(cnc3cscc32)s1 | > 100 µM |  |
| CCCCCCCCCCCCC(SCCNC(=O)CCNC(=O)C(O)C(C)(C)COP(=O)(O)OP(=O)(O)OCC1OC(n2cnc3c(N)ncnc32)C(O)C1OP(=O)(O)O)C(=O)NCC(N)=O (centres undefined) | > 100 µM |  |
| Cc1nc2c(Br)cc(Br)cc2c(=O)n1-c1ccccc1N | > 100 µM |  |
| CC1=Nn2c(nc3sc4c(c3c2=O)CCCC4)SC1 | > 100 µM |  |
| CC1(C)N=C(N)N=C(N)N1c1cccc(CSc2ccccc2)c1 | > 100 µM |  |
| CN(C)Cc1cc(C(=O)O)cc(CN(C)C)c1O | > 100 µM |  |
| COc1ccc(-c2cn3ccnc3c(-c3ccc4ncn(C5CCCCC5)c4c3)n2)cc1 | > 100 µM | > 100 µM |

| Compound | TGI | GI50 |
| --- | --- | --- |
| OC1CCC(Oc2cccc3cnc(Nc4ccc5nc[nH]c5c4)nc23)CC1 (centres undefined) | 3.61 µM | 0.227 µM |
| COc1cc(C(C#N)NNC(=O)c2ccccc2O)ccc1O (centres undefined) | > 100 µM |  |
| CCCCCc1c(CCCC)c(=O)[nH]c2cc(CNCC(OC)OC)ccc12 | 27.2 µM |  |
| COc1ccc(N=C/C=C/Nc2ccc(OC)cc2)cc1 | 26 µM |  |
| Brc1ccc2c(c1)C1=C(CO2)Cc2ccccc2O1 | 31.9 µM |  |
| Cc1nnc2c3c(-c4ccccc4)c(-c4ccccc4)oc3nc(N(C)C)n12 | > 100 µM |  |
| CCCCCC(C)C[C@H]1CO[C@H](c2ccc[nH]2)N[C@H]1C(=O)OC (some centres undefined) | > 100 µM |  |
| O=C1NC(=O)C(c2ccccc2Cl)=C1Nc1cccc(O)c1 | > 25 µM | > 25 µM |
| Cc1nn(-c2ccccc2)c(C)c1/C=N/NC(=O)c1sc(=S)n(-c2ccccc2)c1N | 22.1 µM |  |
| ClCCn1cnc2c(SCc3ccccc3)ncnc21 | 22.2 µM | 1.78 µM |
| CCCCCCCCOCC1S(=O)(=O)OCCOS1(=O)=O | > 100 µM |  |
| O=C1CSC2(CCN(CCCN3c4ccccc4Sc4ccc(Cl)cc43)CC2)N1 | 24.9 µM |  |
| CCCCCCCCCC[C@@H](O)[C@@H]1CC[C@@H]([C@@H]2CC[C@@H]([C@@H](O)CCCCCCCCCCC(O)CC3=CC(C)OC3=O)O2)O1 (some centres undefined) | > 10 µM |  |
| CC(NC(=O)C(NC(=O)OC(C)(C)C)C(C)C)C(=O)NCC(=O)O (stereo not drawn) (Boc-Val-Ala-Gly-OH; configuration not given here) | > 100 µM |  |
| CC/C=C\C[C@H](O)C/C=C1/C(=O)C=C[C@@H]1C/C=C\CCCC(N)=O | 11.4 µM | 2.61 µM |
| O=C1Cc2c(-c3ccccc3)cc(-c3cccc(Cl)c3)nc2-c2ccccc2N1 | 13.9 µM |  |
| CC[C@@]1(OC(=O)CCC(=O)O)C(=O)OCc2c1cc1n(c2=O)Cc2cc3ccccc3nc2-1 | 2.45 µM |  |
| Cn1c(=O)c2c(nc3n2CCC(=O)N3)n(C)c1=O | > 100 µM |  |
| O=S1(=O)c2ccccc2N2CCCc3cc(Cl)cc1c32 | > 100 µM |  |
| COC(=O)/C(=N/NC(C)(C)C)C(C(=O)C=C(C)C)C(=O)C(=O)Nc1ccc(Cl)cc1C (centres undefined) | > 100 µM |  |
| Cc1nc2ccccc2n1CCc1nc2ccccc2s1 | > 100 µM |  |
| O=c1[nH]cnc2c1ncn2[C@H]1CO[C@@H](CO)[C@@H]1O | > 100 µM |  |
| CC(=O)Nc1ccc(Nc2nc(=O)[nH]c(=O)[nH]2)cc1 | > 100 µM |  |
| CC1=CC[C@@H]2C(C)(C)[C@@H](O)CC[C@@]2(C)[C@@H]1COc1ccc2ccc(=O)oc2c1 | 24 µM | 11 µM |
| Cc1ccc2c(c1)sc(-c1ccc(N(C)C)cc1)[n+]2C | 17.4 µM | 2.18 µM |
| CSc1n[n+](C)cc(N)c1N | > 100 µM |  |

| Compound | TGI | GI50 |
| --- | --- | --- |
| OCC1OC(N2C=C(c3nc4ccccc4s3)C3C=CC=CC32)C(O)C1O (centres undefined) | 28.8 µM | 10.8 µM |
| COC(=O)c1c(O)ccc2c1c1c(n2C)C(=O)c2ccccc2C1=O | > 100 µM |  |
| CCC(=O)N1C/C(=C/c2ccc(OC)cc2)C(=O)/C(=C/c2ccc(OC)cc2)C1 | 9.37 µM | 2.91 µM |
| O=C1NC(N2CCOCC2)=N/C1=C\c1ccccc1O | > 100 µM |  |
| Cc1c2cc[n+](C)cc2c(C)c2c1[nH]c1ccccc12 | 10.7 µM and 12.4 µM |  |
| CCCc1ccc(N=Cc2cc(OC)c(OC)c(OC)c2)cc1 | > 100 µM |  |
| CC(SC1=CC(=O)c2c(O)ccc(O)c2C1=O)C(=O)O (centres undefined) | > 100 µM |  |
| COC(=O)c1ccc(OCc2ccc3oc(=O)c(-c4ccccc4)nc3c2)cc1 | > 100 µM |  |
| CC1=C2N3C[C@@H](n4c(=O)n(C)c(=O)n43)C23CCC1n1c(=O)n(C)c(=O)n13 | > 100 µM |  |
| O=C(CSC1=NCCN1)c1ccccc1 | > 100 µM |  |
| O=C(/C=C/c1ccc([N+](=O)[O-])o1)NNC(=O)c1cc2ccccc2cc1O | > 100 µM | 4.45 µM |
| O=C(O)c1nnsc1COCc1ccccc1 | > 100 µM |  |
| O=C1CC(O)c2c(Cl)sc(Cl)c21 (centres undefined) | 34.7 µM |  |
| CCOC(=O)/C(C1=CC(=O)C(=O)c2ccccc21)=C(/C)NCc1ccccc1 | 5.4 µM | 1.95 µM |
| CCc1ccc(C2=C(O)C(=O)C(c3ccc(CC)cc3)=C(O)C2=O)cc1 | 9.61 µM | 2.42 µM |
| O=C1/C(=C/c2cccs2)N=C(c2ccccc2)N1C1Nc2cc3c(cc2S1)NC(N1C(=O)/C(=C/c2cccs2)N=C1c1ccccc1)S3 (centres undefined) | > 100 µM |  |
| Nc1ccc2c(c1)[O][Sn]([c]1ccccc1)([c]1ccccc1)[O]C2=O | 31 µM | 17.2 µM |
| COC(=O)C12C3C4C1C1C2C3C41I (centres undefined) | > 100 µM |  |
| COc1cccc2c(=O)c3c(sc12)c(NCCCN)nc1ccccc13 | 2.86 µM | 1.52 µM |
| CC(C)(C)N=CN1CCC(C(c2ccccc2)c2ccccc2)CC1 | > 100 µM |  |
| COC1C(O)=C2C(=O)OC(C)(O)/C=C/C=C\C=C/C=C/C(c3ccccc3)NC(=O)/C=C/C=C/C=C/C=C/C2(C)C1O (centres undefined) | 0.239 µM and 0.316 µM |  |
| Cc1c2ncccc2c(C)c2c1[nH]c1ccccc12 | 21 µM |  |
| N#C/C(=C(\O)C(=O)O)c1ccc(-c2cccc3ccccc23)cc1 | > 100 µM |  |
| CC1(C)OC2C(=O)OC(COCc3ccccc3)C2O1 (centres undefined) | > 100 µM |  |
| O=c1oc2c3ccc4ccccc4c3n(Cc3nc4ccccc4[nH]3)c2c2ccccc12 | > 100 µM |  |
| Cn1c2ccccc2n2c3nc4ccccc4nc3c(C#N)c12 | > 100 µM |  |

| Compound | TGI | GI50 |
| --- | --- | --- |
| CCOC(=O)/C=C(/CN1C(=O)c2ccccc2C1=O)c1ccccc1 | > 100 µM |  |
| OC1CN=C2c3ccccc3C(O)(c3ccc(Cl)cc3)N2C1 (centres undefined) | > 100 µM |  |
| COC1C(=O)CCC2(CO2)C1(O)C1(C)OC1CCC(C)C (centres undefined) | > 100 µM |  |
| CCc1cccc(C)c1NC(=O)CC1Sc2ccccc2NC1=O (centres undefined) | > 100 µM |  |
| CC(=O)Oc1ccc2c(c1)CC[C@@H]1C2[C@@H](O[N+](=O)[O-])C[C@@]2(C)C1CC[C@@H]2O (some centres undefined) | > 100 µM |  |
| CCN(CC)C(=S)SSC1CCCCC1 | > 100 µM | 41.4 µM |
| C/C(=N/O)c1cccc(Nc2nc3ccccc3c3[nH]c4ccccc4c23)c1 | 7.38 µM |  |
| Fc1cccc2nc(-c3ccccc3)cc(OCc3ccccc3)c12 | > 100 µM |  |
| CCCCCCCCCCCC(=O)C1=C(O)C(O)CCC1=O (centres undefined) | 74.8 µM |  |
| COc1ccc2c(c1)CC[C@@H]1[C@@H]2CC[C@]2(C)/C(=N/OCCN3CCCCC3)CC[C@@H]12 | 11.3 µM |  |
| CN(C)CCNC(=O)c1cccc(CO)c1[N+](=O)[O-] | > 100 µM |  |
| CC(=O)O/C(C)=C\C(=O)O/N=C(\N)c1ccc(C)cc1 | > 100 µM |  |
| O=C1CC(c2cccc(Cl)c2)n2cccc21 (centres undefined) | > 100 µM |  |
| COC1CCC(OC2CC(C3(C)CCC4(CC(O)C(C)C(C(C)/C=C(\C)C(=O)C(C)CC(C)C(=O)O)O4)O3)OC3(OC(C4OC(O)(CO)C(C)CC4C)CC3C)C2C)OC1C (centres undefined) | 3.68 µM |  |
| COc1cccc(-c2cc(=O)c3cc(C)cnc3[nH]2)c1 | > 100 µM |  |
| Cc1cc2occ(C)c(=O)c2c2c1OC(C)(C)S2 | > 100 µM |  |
| OCCCNCc1ccccn1 | > 100 µM |  |
| NNC(=O)c1ccccc1NC(=O)/C(=C/c1ccccc1)NC(=O)c1ccccc1 | > 100 µM |  |
| Nc1nc(N)c2ncn(CC(CO)CC(c3ccccc3)P(=O)(O)O)c2n1 (centres undefined) | > 100 µM |  |
| CC(NC(=O)c1ccc(OP(=O)(OCC2=CC(=O)c3ccccc3C2=O)N(C)CCCCCl)cc1)c1ccc(OCC2CCCCC2)c(C(N)=O)c1 (centres undefined) | 36.5 µM |  |
| O=[N+]([O-])/C=C\c1ccc2c(c1)OCO2 | 23.8 µM | 10.6 µM |
| Cc1ccc(-n2c(C)nc3c2C(=O)c2ccccc2C3=O)cc1 | > 100 µM |  |
| COc1ccc(-c2cc(-c3ccc(Nc4ccnc5cc(Cl)ccc45)cc3)nc(N)c2C#N)c2ccccc12 | > 100 µM |  |
| Cn1c(N/N=C/c2ccc(Cl)cc2)nc(-c2ccc(Cl)cc2)c(C#N)c1=O | 53.4 µM |  |
| COc1ccc([N+](=O)[O-])c2c(NCC(O)CO)ccnc12 (centres undefined) | > 100 µM |  |
| Nc1cc(CO)cc(Nc2c3ccccc3nc3occc23)c1 | > 100 µM |  |

Source: PubChem BioAssay (NCI)
